This note sets out measurements from the supplement of paper PMC12217912.

The chains are these.
B1: TEV protease; numbered along this chain (parent)
chain: MGESLFKGPRDYNPISSSICHLTNESDGHTTSLYGIGFGPFIITNKHLFRRNNGTLVVQSLHGVFKVKDTTTLQQHLVDGRDMIIIRMPKDFPPFPQKLKFREPQREERICLVTTNFQTKSMSSMVSDTSCTFPSGDGIFWKHWIQTKDGQCGSPLVSTRDGFIVGIHSASNFTNTNNYFTSVPKNFMELLTNQEAQQWVSGWRLNADSVLWGGHKVFMVKPEEPFQPVKEATQL

The other results are listed elsewhere or left out. Sequences were assembled here from the parent chain. Inactive controls read about 0.05.

This test covers variants of B1. Description: raw area under fraction-flipped curve 0-4 h after induction (AUC4h, not background-subtracted), DNA-recorder readout of cleavage of the substrate (dimensionless); higher = more cleavage of the substrate by the protease variant. The conditions noted are these: temperature: 34 °C; time window: 0-4 h after rhamnose induction. The method, then:
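In vivo DNA recorder in E. coli TOP10(DE3) ΔrhaA at 34 °C. Each TEVp single-site mutant (parent TEVp 0) is paired with a single-site variant of the 7-mer TEVs (canonical ENLYFQ|S). The substrate sits between flexible linkers in a Bxb1-sfGFP-TEVs-SsrA fusion, so cleavage stabilises Bxb1 and speeds flipping of a recombination array, read by NGS. The value is the raw area under the fraction-flipped curve over 0-4 h after rhamnose induction (AUC4h), with ≥20 reads per time point. It is not background-subtracted; inactive controls average about 0.047.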
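Note: Bxb1 expression induced with 0.2% (w/v) L-rhamnose at OD600 near 0.5, cultures sampled hourly, flipped fraction per protease–substrate barcode pair counted by paired-end Illumina sequencing.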

For MGESLFKGPRDYNPISSSICHLTNESDGHTTSGYGIGFGPFIITNKHLFRRNNGTLVVQSLHGVFKVKDTTTLQQHLVDGRDMIIIRMPKDFPPFPQKLKFREPQREERICLVTTNFQTKSMSSMVSDTSCTFPSGDGIFWKHWIQTKDGQCGSPLVSTRDGFIVGIHSASNFTNTNNYFTSVPKNFMELLTNQEAQQWVSGWRLNADSVLWGGHKVFMVKPEEPFQPVKEATQL [L33G], the “area with substrate CNLYFQS” value was found to be 0.0631, the “area with substrate DNLYFQS” value amounted to 0.066, the “area with substrate GNLYFQS” value was determined as 0.075 and the “area with substrate INLYFQS” value came to 0.0981. Besides, the “area with substrate KNLYFQS” value is 0.0594, the “area with substrate LNLYFQS” value came to 0.0602, the “area with substrate NNLYFQS” value turned out to be 0.0654 and the “area with substrate RNLYFQS” value turned out to be 0.0608. For the same variant, the “area with substrate SNLYFQS” value turned out to be 0.0496, the “area with substrate TNLYFQS” value came to 0.0586, the “area with substrate VNLYFQS” value was determined as 0.0597 and the “area with substrate WNLYFQS” value is 0.0797.

On to MGESLFKGPRDYNPISSSICHLTNESDGHTKSLYGIGFGPFIITNKHLFRRNNGTLVVQSLHGVFKVKDTTTLQQHLVDGRDMIIIRMPKDFPPFPQKLKFREPQREERICLVTTNFQTKSMSSMVSDTSCTFPSGDGIFWKHWIQTKDGQCGSPLVSTRDGFIVGIHSASNFTNTNNYFTSVPKNFMELLTNQEAQQWVSGWRLNADSVLWGGHKVFMVKPEEPFQPVKEATQL [T31K], for which the “area with substrate CNLYFQS” value was 0.0627, the “area with substrate DNLYFQS” value was 0.0872, the “area with substrate FNLYFQS” value was 0.0744 and the “area with substrate GNLYFQS” value stood at 0.0846. Besides, the “area with substrate KNLYFQS” value is 0.0574, the “area with substrate MNLYFQS” value worked out at 0.0553, the “area with substrate NNLYFQS” value came to 0.0612 and the “area with substrate PNLYFQS” value amounted to 0.0599. The “area with substrate RNLYFQS” value is 0.0658, the “area with substrate TNLYFQS” value turned out to be 0.0544, the “area with substrate VNLYFQS” value is 0.0625 and the “area with substrate WNLYFQS” value stood at 0.0647.

As to MGESLFKGPRDYNPISSSICHLTNESDGHTSSLYGIGFGPFIITNKHLFRRNNGTLVVQSLHGVFKVKDTTTLQQHLVDGRDMIIIRMPKDFPPFPQKLKFREPQREERICLVTTNFQTKSMSSMVSDTSCTFPSGDGIFWKHWIQTKDGQCGSPLVSTRDGFIVGIHSASNFTNTNNYFTSVPKNFMELLTNQEAQQWVSGWRLNADSVLWGGHKVFMVKPEEPFQPVKEATQL [T31S], the “area with substrate CNLYFQS” value was 0.0658, the “area with substrate DNLYFQS” value amounted to 0.0599, the “area with substrate GNLYFQS” value is 0.0612 and the “area with substrate INLYFQS” value stood at 0.063. The “area with substrate LNLYFQS” value was 0.0685, the “area with substrate NNLYFQS” value came out at 0.0621, the “area with substrate PNLYFQS” value came to 0.0655 and the “area with substrate SNLYFQS” value was determined as 0.0572. Further, the “area with substrate VNLYFQS” value worked out at 0.07, the “area with substrate WNLYFQS” value was found to be 0.0661 and the “area with substrate YNLYFQS” value is 0.0697.

Consider MGESLFKGPRDYNPISSSICHLTNESDGHTNSLYGIGFGPFIITNKHLFRRNNGTLVVQSLHGVFKVKDTTTLQQHLVDGRDMIIIRMPKDFPPFPQKLKFREPQREERICLVTTNFQTKSMSSMVSDTSCTFPSGDGIFWKHWIQTKDGQCGSPLVSTRDGFIVGIHSASNFTNTNNYFTSVPKNFMELLTNQEAQQWVSGWRLNADSVLWGGHKVFMVKPEEPFQPVKEATQL [T31N], for which the “area with substrate CNLYFQS” value was found to be 0.0623, the “area with substrate DNLYFQS” value is 0.0682, the “area with substrate FNLYFQS” value turned out to be 0.0534 and the “area with substrate HNLYFQS” value was 0.0567. In addition, the “area with substrate KNLYFQS” value came out at 0.0649, the “area with substrate LNLYFQS” value worked out at 0.0726, the “area with substrate MNLYFQS” value was found to be 0.0574 and the “area with substrate NNLYFQS” value is 0.0626. In addition, the “area with substrate PNLYFQS” value is 0.0652, the “area with substrate QNLYFQS” value was found to be 0.0446, the “area with substrate SNLYFQS” value stood at 0.0716 and the “area with substrate TNLYFQS” value is 0.0632. Besides, the “area with substrate VNLYFQS” value stood at 0.0625, the “area with substrate WNLYFQS” value is 0.0591 and the “area with substrate YNLYFQS” value was determined as 0.0572.

Take MGESLFKGPRDYNPISSSICHLTNESDGHTDSLYGIGFGPFIITNKHLFRRNNGTLVVQSLHGVFKVKDTTTLQQHLVDGRDMIIIRMPKDFPPFPQKLKFREPQREERICLVTTNFQTKSMSSMVSDTSCTFPSGDGIFWKHWIQTKDGQCGSPLVSTRDGFIVGIHSASNFTNTNNYFTSVPKNFMELLTNQEAQQWVSGWRLNADSVLWGGHKVFMVKPEEPFQPVKEATQL [T31D]: the “area with substrate CNLYFQS” value is 0.0685, the “area with substrate DNLYFQS” value turned out to be 0.0794, the “area with substrate HNLYFQS” value came out at 0.0573 and the “area with substrate INLYFQS” value is 0.065. Besides, the “area with substrate KNLYFQS” value amounted to 0.0765, the “area with substrate LNLYFQS” value is 0.0603, the “area with substrate NNLYFQS” value is 0.0491 and the “area with substrate PNLYFQS” value turned out to be 0.06. Moreover, the “area with substrate SNLYFQS” value turned out to be 0.0584, the “area with substrate TNLYFQS” value worked out at 0.0597, the “area with substrate VNLYFQS” value came to 0.0474 and the “area with substrate WNLYFQS” value was 0.0597. The “area with substrate YNLYFQS” value was 0.055.

For MGESLFKGPRDYNPISSSICHLTNESDGHTTSLYGIMFGPFIITNKHLFRRNNGTLVVQSLHGVFKVKDTTTLQQHLVDGRDMIIIRMPKDFPPFPQKLKFREPQREERICLVTTNFQTKSMSSMVSDTSCTFPSGDGIFWKHWIQTKDGQCGSPLVSTRDGFIVGIHSASNFTNTNNYFTSVPKNFMELLTNQEAQQWVSGWRLNADSVLWGGHKVFMVKPEEPFQPVKEATQL [G37M], the “area with substrate CNLYFQS” value was 0.0544, the “area with substrate DNLYFQS” value turned out to be 0.102, the “area with substrate FNLYFQS” value was 0.0512 and the “area with substrate HNLYFQS” value was 0.0469. Further, the “area with substrate INLYFQS” value came out at 0.0684, the “area with substrate KNLYFQS” value came to 0.0364, the “area with substrate LNLYFQS” value stood at 0.0457 and the “area with substrate MNLYFQS” value came out at 0.0795. Also, the “area with substrate NNLYFQS” value stood at 0.059, the “area with substrate PNLYFQS” value was found to be 0.0452, the “area with substrate TNLYFQS” value was determined as 0.0569 and the “area with substrate VNLYFQS” value stood at 0.062. For the same variant, the “area with substrate WNLYFQS” value is 0.0366 and the “area with substrate YNLYFQS” value turned out to be 0.0552.

On to MGESLFKGPRDYNPISSSICHLTNESDGHTTSLYGIVFGPFIITNKHLFRRNNGTLVVQSLHGVFKVKDTTTLQQHLVDGRDMIIIRMPKDFPPFPQKLKFREPQREERICLVTTNFQTKSMSSMVSDTSCTFPSGDGIFWKHWIQTKDGQCGSPLVSTRDGFIVGIHSASNFTNTNNYFTSVPKNFMELLTNQEAQQWVSGWRLNADSVLWGGHKVFMVKPEEPFQPVKEATQL [G37V], for which the “area with substrate CNLYFQS” value was 0.0527, the “area with substrate DNLYFQS” value was 0.071, the “area with substrate GNLYFQS” value is 0.0421 and the “area with substrate HNLYFQS” value stood at 0.0554. Further, the “area with substrate INLYFQS” value was found to be 0.064, the “area with substrate KNLYFQS” value is 0.0593, the “area with substrate MNLYFQS” value came to 0.0532 and the “area with substrate RNLYFQS” value was determined as 0.0579. Besides, the “area with substrate SNLYFQS” value was found to be 0.0594, the “area with substrate TNLYFQS” value was 0.0531, the “area with substrate VNLYFQS” value was 0.0573 and the “area with substrate WNLYFQS” value was 0.0412.

For the variant MGESLFKGPRDYNPISSSICHLTNESDGHTTSLYGIGGGPFIITNKHLFRRNNGTLVVQSLHGVFKVKDTTTLQQHLVDGRDMIIIRMPKDFPPFPQKLKFREPQREERICLVTTNFQTKSMSSMVSDTSCTFPSGDGIFWKHWIQTKDGQCGSPLVSTRDGFIVGIHSASNFTNTNNYFTSVPKNFMELLTNQEAQQWVSGWRLNADSVLWGGHKVFMVKPEEPFQPVKEATQL [F38G], the “area with substrate CNLYFQS” value is 0.028, the “area with substrate DNLYFQS” value was found to be 0.0527, the “area with substrate INLYFQS” value stood at 0.0287 and the “area with substrate NNLYFQS” value stood at 0.0352. Moreover, the “area with substrate WNLYFQS” value is 0.0295.

For MGESLFKGPRDYNPISSSICHLTNESDGHTTSLYGIGTGPFIITNKHLFRRNNGTLVVQSLHGVFKVKDTTTLQQHLVDGRDMIIIRMPKDFPPFPQKLKFREPQREERICLVTTNFQTKSMSSMVSDTSCTFPSGDGIFWKHWIQTKDGQCGSPLVSTRDGFIVGIHSASNFTNTNNYFTSVPKNFMELLTNQEAQQWVSGWRLNADSVLWGGHKVFMVKPEEPFQPVKEATQL [F38T], the “area with substrate CNLYFQS” value worked out at 0.0553, the “area with substrate DNLYFQS” value stood at 0.0641, the “area with substrate GNLYFQS” value is 0.0548 and the “area with substrate HNLYFQS” value came to 0.063. Moreover, the “area with substrate INLYFQS” value came to 0.0582, the “area with substrate KNLYFQS” value was found to be 0.0548, the “area with substrate MNLYFQS” value came out at 0.0485 and the “area with substrate PNLYFQS” value is 0.064. The “area with substrate QNLYFQS” value is 0.0565, the “area with substrate RNLYFQS” value is 0.072, the “area with substrate TNLYFQS” value was found to be 0.0547 and the “area with substrate VNLYFQS” value worked out at 0.041. For the same variant, the “area with substrate WNLYFQS” value was found to be 0.0628 and the “area with substrate YNLYFQS” value is 0.0713.

With MGESLFKGPRDYNPISSSICHLTNESDGHTTSLYGIGNGPFIITNKHLFRRNNGTLVVQSLHGVFKVKDTTTLQQHLVDGRDMIIIRMPKDFPPFPQKLKFREPQREERICLVTTNFQTKSMSSMVSDTSCTFPSGDGIFWKHWIQTKDGQCGSPLVSTRDGFIVGIHSASNFTNTNNYFTSVPKNFMELLTNQEAQQWVSGWRLNADSVLWGGHKVFMVKPEEPFQPVKEATQL [F38N], the “area with substrate CNLYFQS” value was 0.0587, the “area with substrate DNLYFQS” value was found to be 0.124, the “area with substrate GNLYFQS” value is 0.0489 and the “area with substrate INLYFQS” value came to 0.0549. For the same variant, the “area with substrate LNLYFQS” value was 0.0539, the “area with substrate PNLYFQS” value stood at 0.0447, the “area with substrate SNLYFQS” value was 0.0537 and the “area with substrate TNLYFQS” value is 0.0543. For the same variant, the “area with substrate VNLYFQS” value came out at 0.0495 and the “area with substrate WNLYFQS” value was 0.0602.
